Measured values from the RNAGym collection of RNA variant scans (doi:10.1073/pnas.2313332121).
This sample is rich in variants without activity.

B1: TPR 5TU (parent)
chain: GGAUCUUCUCGAUCUAACAAAAAAGACAAAUCUGCCACAAAGCUUGAGAGCAUCUUCGGAUGCAGAGGCGGCAGCCUUCGGUGGCGCGAUAGCGCCAACGUUCUCAACUAUGACACGCAAAACGCGUGCUCCGUUGAAUGGAGUUUAUCAUG

Variants of: B1
Assay: polymerase ribozyme fitness, log enrichment relative to wild type (log ratio); higher = more active; in vitro selection for triplet polymerase activity
Method in brief: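 Only genotypes with ≥10 input reads and ≥1 read per output were kept after Illumina sequencing of input and output libraries. These libraries were PCR-built, transcribed mutants of each subunit of a heterodimeric triplet polymerase ribozyme, each put through one triplicate in vitro selection round with frozen incubation at −7 °C, gel excision of extended constructs, streptavidin-bead capture and RT-PCR. Fitness is a logarithmic ratio of genotype enrichment to wild-type enrichment, from inverse-variance-weighted replicate averages, with the logarithm in base 2.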

| Variant | polymerase ribozyme fitness (log ratio) |
| --- | --- |
| U55A C85U A122G A142G U145G | -2.39 |
| U55A C85U U148A | ≤ -4.2 |
| U55A C87U U90C | ≤ -4.2 |
| U55A C93G G141C | -3.82 |
| U55A C93U G133U | ≤ -4.2 |
| U55A C96A A98C U139G C149A | ≤ -4.2 |
| U55A C96U A113C A142G U144G C149A | ≤ -4.2 |
| U55A C114A | -3.44 |
| U55A C114U | -2.21 |
| U55A C118G U134G | ≤ -4.2 |
| U55A C132A A137G G143A U146G | ≤ -4.2 |
| U55A G59C G80C G83C A107G C132A | ≤ -4.2 |
| U55A G59C G94U A107C | ≤ -4.2 |
| U55A G62U A73G G86C | ≤ -4.2 |
| U55A G68A A73C C95G | ≤ -4.2 |
| U55A G71A U77C C95U A113C C149G | ≤ -4.2 |
| U55A G81A C87U U135A U146A | -2.11 |
| U55A G84A A119C G133U G143A | -4.03 |
| U55A G84C G88A G112C C114U | ≤ -4.2 |
| U55A G84U | -2.28 |
| U55A G84U A98C A110U U145A | ≤ -4.2 |

| Variant | polymerase ribozyme fitness (log ratio) |
| --- | --- |
| U55A G84U A106C U144C U146C | -4.16 |
| U55A G84U G100U C108U U151A | ≤ -4.2 |
| U55A G84U G128U U134C | -4.17 |
| U55A G94A A97U A107G G124U U134A U135G U139G G140C | ≤ -4.2 |
| U55A G100A | ≤ -4.2 |
| U55A G126U | -0.31 |
| U55A G140U | -2.9 |
| U55A U56A A89C U109C C132G | ≤ -4.2 |
| U55A U56A A106C | -1.06 |
| U55A U56A C57G C72A C114A C149G | ≤ -4.2 |
| U55A U56A C93U A138G | ≤ -4.2 |
| U55A U56C G58A G92C A119U U145G | -2.87 |
| U55A U56C G67A G68C C85A C99G U111G G117A | ≤ -4.2 |
| U55A U56G C63A C87A G88U U148G G152U | ≤ -4.2 |
| U55A U61A A97C C103A C125A | ≤ -4.2 |
| U55A U61A C79A G83A U90G G143A | ≤ -4.2 |
| U55A U61A C93U C103A | ≤ -4.2 |
| U55A U61G C72U C93U | ≤ -4.2 |
| U55A U61G C76A C103A A122G | ≤ -4.2 |
| U55A U61G G70C C87U A137C U145C | ≤ -4.2 |
| U55A U61G G86U | ≤ -4.2 |

| Variant | polymerase ribozyme fitness (log ratio) |
| --- | --- |
| U55A U77C C105A A107U U127G A137C | ≤ -4.2 |
| U55A U78A G86A | ≤ -4.2 |
| U55A U78C C123G | -0.403 |
| U55A U78G G84U C87G C118U | ≤ -4.2 |
| U55A U82G | -0.931 |
| U55A U82G G83A C99U C103A | ≤ -4.2 |
| U55A U101G | -0.568 |
| U55A U127G | -2.72 |
| U55A U134C | -0.296 |
| U55A U134G | -1.99 |
| U55A U144G | 0.364 |
| U55A U145C | 0.505 |
| U55C C63U C85G A107U A142U U145A | ≤ -4.2 |
| U55C C76G G92A C114G A115U | ≤ -4.2 |
| U55C C79A A89G U139A A142C | ≤ -4.2 |
| U55C C85G | -1.66 |
| U55C G88A C103A | ≤ -4.2 |
| U55C G92C | -0.135 |
| U55C U56C G59C C75G G84U G133U | ≤ -4.2 |
| U55C U61G U82G G88U C95U C103A C125A U151A | ≤ -4.2 |
| U55G A60C C75A G80C | ≤ -4.2 |

| Variant | polymerase ribozyme fitness (log ratio) |
| --- | --- |
| U55G A60G C79U A119C | -2.12 |
| U55G A60U G83C A137U G141U | ≤ -4.2 |
| U55G A64G G67C | ≤ -4.2 |
| U55G A73U | -2.35 |
| U55G A73U A122G G126C | -1.69 |
| U55G A97G | 0.0201 |
| U55G C57A C69U U109G C116A | -0.0851 |
| U55G C57G C95U C96A C118G | -2.53 |
| U55G C57G U61C U77A U148C | ≤ -4.2 |
| U55G C57G U101G | 0.189 |
| U55G C85A | -2.4 |
| U55G C87A A120C A122C G124A C132U U148G | ≤ -4.2 |
| U55G C87A G141C | -3.74 |
| U55G C93G U127A | ≤ -4.2 |
| U55G G68U G133C A138G | ≤ -4.2 |
| U55G G70A A97G U151G | ≤ -4.2 |
| U55G G84U | -0.827 |
| U55G G84U A98C U151C | ≤ -4.2 |
| U55G G88C G128U | ≤ -4.2 |
| U55G G143C | -2.79 |
| U55G U56G G67C G68A G117A | ≤ -4.2 |
